# The supplement of paper PMC8728848
# Some of the results follow.
# B1: Si Bti9 1b-HA (Solanum lycopersicum) (protein)
# chain: MFESRPRSVLSLGVFVILVYLSSVPLPVNSQCNRGCDLALASFYVWRGSNLTLISEMFSTSIADIVSYNNRDNIPNQDSVIAGTRINIPFRCDCLNDGEVLGHAFPYRVKSGDTYDLVARNYSDLTTAQWMMKFNSYPENNIPNTVNLSVVVNCSCGNSDVSKDFGLFVTYPVRAEDNLTSVASAANVSEDIIRRYNPAAVSILDIGQGIIYIPGRDRNGNFPPLPTSTDGLSGGAKAPLFFNPAFLYKVVELKLAGRSRTSGYPYDVPDYAGYPYDVPDYALEVLFQ
# How the values were obtained:
# Experiment in all cases: glycan array binding signal (z-score within array); higher = stronger binding
# Conditions in all cases: glycan notation: IUPAC condensed, linker removed
# [1] = target: Gal(b1-3)[Fuc(a1-4)]GlcNAc(b1-6)GalNAc
# How it was run: (§1)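 Negative Z-scores can be read as non-binding. The Z-score is calculated within each array and then averaged across arrays of one protein sequence at different concentrations or buffers and across linkers. Arrays, 3228 in all, were curated from the Consortium for Functional Glycomics database and kept only where the protein sequence was available.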
# [2] = target: Gal(b1-3)[GlcNAc(b1-6)]GalNAc
# How it was run: as §1
# [3] = target: Gal(b1-3)[Neu5Ac(a2-6)]GalNAc
# How it was run: as §1
# [4] = target: Gal(b1-3)[Neu5Ac(a2-6)]GlcNAc(b1-4)Gal(b1-4)Glc
# How it was run: as §1
# [5] = target: Gal(b1-3)[Neu5Ac(b2-6)]GalNAc
# How it was run: as §1
# Gal(b1-4)Gal = target: Gal(b1-4)Gal
# How it was run: as §1
# [6] = target: Gal(b1-4)GalNAc(a1-3)[Fuc(a1-2)]Gal(b1-4)GlcNAc
# How it was run: as §1
# [7] = target: Gal(b1-4)GalNAc(b1-3)[Fuc(a1-2)]Gal(b1-4)GlcNAc
# How it was run: as §1
# Gal(b1-4)Glc = target: Gal(b1-4)Glc
# How it was run: as §1
# Gal(b1-4)Glc6S = target: Gal(b1-4)Glc6S
# How it was run: as §1
# Gal(b1-4)GlcNAc = target: Gal(b1-4)GlcNAc
# How it was run: as §1
# [8] = target: Gal(b1-4)GlcNAc(a1-6)Gal(b1-4)GlcNAc
# How it was run: as §1
# Gal(b1-4)GlcNAc(b1-2)Man = target: Gal(b1-4)GlcNAc(b1-2)Man
# How it was run: as §1
# [9] = target: Gal(b1-4)GlcNAc(b1-2)Man(a1-3)Man(b1-4)GlcNAc(b1-4)GlcNAc
# How it was run: as §1
# [10] = target: Gal(b1-4)GlcNAc(b1-2)Man(a1-3)[Gal(b1-4)GlcNAc(b1-2)Man(a1-6)]Man(b1-4)GlcNAc(b1-4)GlcNAc
# How it was run: as §1
# [11] = target: Gal(b1-4)GlcNAc(b1-2)Man(a1-3)[Gal(b1-4)GlcNAc(b1-2)Man(a1-6)]Man(b1-4)GlcNAc(b1-4)[Fuc(a1-6)]GlcNAc
# How it was run: as §1
# [12] = target: Gal(b1-4)GlcNAc(b1-2)Man(a1-3)[Gal(b1-4)GlcNAc(b1-2)Man(a1-6)][Gal(b1-4)GlcNAc(b1-4)]Man(b1-4)GlcNAc(b1-4)[Fuc(a1-6)]GlcNAc
# How it was run: as §1
# [13] = target: Gal(b1-4)GlcNAc(b1-2)Man(a1-3)[Gal(b1-4)GlcNAc(b1-2)Man(a1-6)][GlcNAc(b1-4)]Man(b1-4)GlcNAc(b1-4)[Fuc(a1-6)]GlcNAc
# How it was run: as §1
# [14] = target: Gal(b1-4)GlcNAc(b1-2)Man(a1-3)[GlcNAc(b1-2)Man(a1-6)]Man(b1-4)GlcNAc(b1-4)GlcNAc
# How it was run: as §1
# [15] = target: Gal(b1-4)GlcNAc(b1-2)Man(a1-3)[GlcNAc(b1-4)][Gal(b1-4)GlcNAc(b1-2)Man(a1-6)]Man(b1-4)GlcNAc(b1-4)GlcNAc
# How it was run: as §1
# [16] = target: Gal(b1-4)GlcNAc(b1-2)Man(a1-3)[Man(a1-6)]Man(b1-4)GlcNAc(b1-4)GlcNAc
# How it was run: as §1
# [17] = target: Gal(b1-4)GlcNAc(b1-2)Man(a1-6)Man(b1-4)GlcNAc(b1-4)GlcNAc
# How it was run: as §1
# [18] = target: Gal(b1-4)GlcNAc(b1-2)Man(a1-6)[GlcNAc(b1-2)Man(a1-3)]Man(b1-4)GlcNAc(b1-4)GlcNAc
# How it was run: as §1
# [19] = target: Gal(b1-4)GlcNAc(b1-2)Man(a1-6)[Man(a1-3)]Man(b1-4)GlcNAc(b1-4)GlcNAc
# How it was run: as §1
# [20] = target: Gal(b1-4)GlcNAc(b1-2)[Gal(b1-4)GlcNAc(b1-4)]Man(a1-3)[Gal(b1-4)GlcNAc(b1-2)Man(a1-6)]Man(b1-4)GlcNAc(b1-4)GlcNAc
# How it was run: as §1
# [21] = target: Gal(b1-4)GlcNAc(b1-2)[Gal(b1-4)GlcNAc(b1-4)]Man(a1-3)[Gal(b1-4)GlcNAc(b1-2)[Gal(b1-4)GlcNAc(b1-6)]Man(a1-6)]Man(b1-4)GlcNAc(b1-4)GlcNAc
# How it was run: as §1
# [22] = target: Gal(b1-4)GlcNAc(b1-2)[Gal(b1-4)GlcNAc(b1-4)]Man(a1-3)[GlcNAc(b1-4)][Gal(b1-4)GlcNAc(b1-2)Man(a1-6)]Man(b1-4)GlcNAc(b1-4)GlcNAc
# How it was run: as §1
# [23] = target: Gal(b1-4)GlcNAc(b1-2)[Gal(b1-4)GlcNAc(b1-4)]Man(a1-3)[GlcNAc(b1-4)][Gal(b1-4)GlcNAc(b1-2)[Gal(b1-4)GlcNAc(b1-6)]Man(a1-6)]Man(b1-4)GlcNAc(b1-4)GlcNAc
# How it was run: as §1
# [24] = target: Gal(b1-4)GlcNAc(b1-2)[Gal(b1-4)GlcNAc(b1-6)]Man(a1-6)[Gal(b1-4)GlcNAc(b1-2)Man(a1-3)]Man(b1-4)GlcNAc(b1-4)GlcNAc
# How it was run: as §1
# [25] = target: Gal(b1-4)GlcNAc(b1-2)[Gal(b1-4)GlcNAc(b1-6)]Man(a1-6)[Gal(b1-4)GlcNAc(b1-2)Man(a1-3)]Man(b1-4)GlcNAc(b1-4)[Fuc(a1-6)]GlcNAc
# How it was run: as §1
# [26] = target: Gal(b1-4)GlcNAc(b1-2)[Gal(b1-4)GlcNAc(b1-6)]Man(a1-6)[GlcNAc(b1-4)][Gal(b1-4)GlcNAc(b1-2)Man(a1-3)]Man(b1-4)GlcNAc(b1-4)GlcNAc
# How it was run: as §1
# [27] = target: Gal(b1-4)GlcNAc(b1-2)[Gal(b1-4)GlcNAc(b1-6)]Man(a1-6)[GlcNAc(b1-4)][Gal(b1-4)GlcNAc(b1-2)[Gal(b1-4)GlcNAc(b1-4)]Man(a1-3)]Man(b1-4)GlcNAc(b1-4)[Fuc(a1-6)]GlcNAc
# How it was run: as §1
# [28] = target: Gal(b1-4)GlcNAc(b1-3)Gal(b1-3)GalNAc
# How it was run: as §1
# [29] = target: Gal(b1-4)GlcNAc(b1-3)Gal(b1-3)GlcNAc
# How it was run: as §1
# [30] = target: Gal(b1-4)GlcNAc(b1-3)Gal(b1-4)Glc
# How it was run: as §1
# [31] = target: Gal(b1-4)GlcNAc(b1-3)Gal(b1-4)GlcNAc
# How it was run: as §1
# [32] = target: Gal(b1-4)GlcNAc(b1-3)Gal(b1-4)GlcNAc(b1-2)Man(a1-3)[Gal(b1-4)GlcNAc(b1-3)Gal(b1-4)GlcNAc(b1-2)Man(a1-6)]Man(b1-4)GlcNAc(b1-4)GlcNAc
# How it was run: as §1
# [33] = target: Gal(b1-4)GlcNAc(b1-3)Gal(b1-4)GlcNAc(b1-2)Man(a1-3)[Gal(b1-4)GlcNAc(b1-3)Gal(b1-4)GlcNAc(b1-2)Man(a1-6)]Man(b1-4)GlcNAc(b1-4)[Fuc(a1-6)]GlcNAc
# How it was run: as §1
binder,measurement,setting,value
B1,glycan array binding signal (z-score),[1],0.032
same,glycan array binding signal (z-score),[2],-0.308
same,glycan array binding signal (z-score),[3],-0.343
same,glycan array binding signal (z-score),[4],-0.134
same,glycan array binding signal (z-score),[5],-0.441
same,glycan array binding signal (z-score),Gal(b1-4)Gal,-0.003
same,glycan array binding signal (z-score),[6],-0.332
same,glycan array binding signal (z-score),[7],-0.319
same,glycan array binding signal (z-score),Gal(b1-4)Glc,-0.127
same,glycan array binding signal (z-score),Gal(b1-4)Glc6S,0.274
same,glycan array binding signal (z-score),Gal(b1-4)GlcNAc,-0.203
same,glycan array binding signal (z-score),[8],-0.607
same,glycan array binding signal (z-score),Gal(b1-4)GlcNAc(b1-2)Man,0.344
same,glycan array binding signal (z-score),[9],0.174
same,glycan array binding signal (z-score),[10],-0.288
same,glycan array binding signal (z-score),[11],-0.064
same,glycan array binding signal (z-score),[12],-0.382
same,glycan array binding signal (z-score),[13],-0.589
same,glycan array binding signal (z-score),[14],-0.076
same,glycan array binding signal (z-score),[15],-0.173
same,glycan array binding signal (z-score),[16],-0.152
same,glycan array binding signal (z-score),[17],-0.057
same,glycan array binding signal (z-score),[18],-0.058
same,glycan array binding signal (z-score),[19],-0.322
same,glycan array binding signal (z-score),[20],-0.324
same,glycan array binding signal (z-score),[21],-0.538
same,glycan array binding signal (z-score),[22],-0.317
same,glycan array binding signal (z-score),[23],-0.345
same,glycan array binding signal (z-score),[24],-0.425
same,glycan array binding signal (z-score),[25],-0.297
same,glycan array binding signal (z-score),[26],-0.363
same,glycan array binding signal (z-score),[27],-0.334
same,glycan array binding signal (z-score),[28],-0.16
same,glycan array binding signal (z-score),[29],-0.442
same,glycan array binding signal (z-score),[30],-0.183
same,glycan array binding signal (z-score),[31],-0.346
same,glycan array binding signal (z-score),[32],3.44
same,glycan array binding signal (z-score),[33],-0.143
